{"source": "patent US20110319597A1", "about": "(CAPHALON AUSTRALIA, published 2011)", "binders": {"B1": {"name": "TNFα dAb Fc variant P59H (Fc fusion, name in Kabat numbering)", "chain": "DIQMTQSPSSLSASVGDRVTITCRASQAIDSYLHWYQQKPGKAPKLLIYSASNLETGVHSRFSGSGSGTDFTLTISSLLPEDFATYYCQQVVWRPFTFGQGTKVEIKRV[human IgG1 Fc with changes left out]"}, "B2": {"name": "TNFα dAb Fc variant P59K (Fc fusion, name in Kabat numbering)", "chain": "DIQMTQSPSSLSASVGDRVTITCRASQAIDSYLHWYQQKPGKAPKLLIYSASNLETGVKSRFSGSGSGTDFTLTISSLLPEDFATYYCQQVVWRPFTFGQGTKVEIKRV[human IgG1 Fc with changes left out]"}, "B3": {"name": "TNFα dAb Fc variant P59L (Fc fusion, name in Kabat numbering)", "chain": "DIQMTQSPSSLSASVGDRVTITCRASQAIDSYLHWYQQKPGKAPKLLIYSASNLETGVLSRFSGSGSGTDFTLTISSLLPEDFATYYCQQVVWRPFTFGQGTKVEIKRV[human IgG1 Fc with changes left out]"}, "B4": {"name": "TNFα dAb Fc variant P59Q (Fc fusion, name in Kabat numbering)", "chain": "DIQMTQSPSSLSASVGDRVTITCRASQAIDSYLHWYQQKPGKAPKLLIYSASNLETGVQSRFSGSGSGTDFTLTISSLLPEDFATYYCQQVVWRPFTFGQGTKVEIKRV[human IgG1 Fc with changes left out]"}, "B5": {"name": "TNFα dAb Fc variant P59S (Fc fusion, name in Kabat numbering)", "chain": "DIQMTQSPSSLSASVGDRVTITCRASQAIDSYLHWYQQKPGKAPKLLIYSASNLETGVSSRFSGSGSGTDFTLTISSLLPEDFATYYCQQVVWRPFTFGQGTKVEIKRV[human IgG1 Fc with changes left out]"}, "B6": {"name": "TNFα dAb Fc variant P59Y (Fc fusion, name in Kabat numbering)", "chain": "DIQMTQSPSSLSASVGDRVTITCRASQAIDSYLHWYQQKPGKAPKLLIYSASNLETGVYSRFSGSGSGTDFTLTISSLLPEDFATYYCQQVVWRPFTFGQGTKVEIKRV[human IgG1 Fc with changes left out]"}, "B7": {"name": "TNFα dAb Fc variant Q37H (Fc fusion, name in Kabat numbering)", "chain": "DIQMTQSPSSLSASVGDRVTITCRASQAIDSYLHWYHQKPGKAPKLLIYSASNLETGVPSRFSGSGSGTDFTLTISSLLPEDFATYYCQQVVWRPFTFGQGTKVEIKRV[human IgG1 Fc with changes left out]"}, "B8": {"name": "TNFα dAb Fc variant Q37K (Fc fusion, name in Kabat numbering)", "chain": "DIQMTQSPSSLSASVGDRVTITCRASQAIDSYLHWYKQKPGKAPKLLIYSASNLETGVPSRFSGSGSGTDFTLTISSLLPEDFATYYCQQVVWRPFTFGQGTKVEIKRV[human IgG1 Fc with changes left out]"}, "B9": {"name": "TNFα dAb Fc variant Q38A (Fc fusion, name in Kabat numbering)", "chain": "DIQMTQSPSSLSASVGDRVTITCRASQAIDSYLHWYQAKPGKAPKLLIYSASNLETGVPSRFSGSGSGTDFTLTISSLLPEDFATYYCQQVVWRPFTFGQGTKVEIKRV[human IgG1 Fc with changes left out]"}, "B10": {"name": "TNFα dAb Fc variant Q38H (Fc fusion, name in Kabat numbering)", "chain": "DIQMTQSPSSLSASVGDRVTITCRASQAIDSYLHWYQHKPGKAPKLLIYSASNLETGVPSRFSGSGSGTDFTLTISSLLPEDFATYYCQQVVWRPFTFGQGTKVEIKRV[human IgG1 Fc with changes left out]"}, "B11": {"name": "TNFα dAb Fc variant Q38K (Fc fusion, name in Kabat numbering)", "chain": "DIQMTQSPSSLSASVGDRVTITCRASQAIDSYLHWYQKKPGKAPKLLIYSASNLETGVPSRFSGSGSGTDFTLTISSLLPEDFATYYCQQVVWRPFTFGQGTKVEIKRV[human IgG1 Fc with changes left out]"}, "B12": {"name": "TNFα dAb Fc variant Q38S (Fc fusion, name in Kabat numbering)", "chain": "DIQMTQSPSSLSASVGDRVTITCRASQAIDSYLHWYQSKPGKAPKLLIYSASNLETGVPSRFSGSGSGTDFTLTISSLLPEDFATYYCQQVVWRPFTFGQGTKVEIKRV[human IgG1 Fc with changes left out]"}, "B13": {"name": "TNFα dAb Fc variant Q38Y (Fc fusion, name in Kabat numbering)", "chain": "DIQMTQSPSSLSASVGDRVTITCRASQAIDSYLHWYQYKPGKAPKLLIYSASNLETGVPSRFSGSGSGTDFTLTISSLLPEDFATYYCQQVVWRPFTFGQGTKVEIKRV[human IgG1 Fc with changes left out]"}, "B14": {"name": "TNFα dAb Fc variant R61H (Fc fusion, name in Kabat numbering)", "chain": "DIQMTQSPSSLSASVGDRVTITCRASQAIDSYLHWYQQKPGKAPKLLIYSASNLETGVPSHFSGSGSGTDFTLTISSLLPEDFATYYCQQVVWRPFTFGQGTKVEIKRV[human IgG1 Fc with changes left out]"}, "B15": {"name": "TNFα dAb Fc variant S60A (Fc fusion, name in Kabat numbering)", "chain": "DIQMTQSPSSLSASVGDRVTITCRASQAIDSYLHWYQQKPGKAPKLLIYSASNLETGVPARFSGSGSGTDFTLTISSLLPEDFATYYCQQVVWRPFTFGQGTKVEIKRV[human IgG1 Fc with changes left out]"}, "B16": {"name": "TNFα dAb Fc variant S60D (Fc fusion, name in Kabat numbering)", "chain": "DIQMTQSPSSLSASVGDRVTITCRASQAIDSYLHWYQQKPGKAPKLLIYSASNLETGVPDRFSGSGSGTDFTLTISSLLPEDFATYYCQQVVWRPFTFGQGTKVEIKRV[human IgG1 Fc with changes left out]"}, "B17": {"name": "TNFα dAb Fc variant S60H (Fc fusion, name in Kabat numbering)", "chain": "DIQMTQSPSSLSASVGDRVTITCRASQAIDSYLHWYQQKPGKAPKLLIYSASNLETGVPHRFSGSGSGTDFTLTISSLLPEDFATYYCQQVVWRPFTFGQGTKVEIKRV[human IgG1 Fc with changes left out]"}, "B18": {"name": "TNFα dAb Fc variant S60K (Fc fusion, name in Kabat numbering)", "chain": "DIQMTQSPSSLSASVGDRVTITCRASQAIDSYLHWYQQKPGKAPKLLIYSASNLETGVPKRFSGSGSGTDFTLTISSLLPEDFATYYCQQVVWRPFTFGQGTKVEIKRV[human IgG1 Fc with changes left out]"}, "B19": {"name": "TNFα dAb Fc variant S60L (Fc fusion, name in Kabat numbering)", "chain": "DIQMTQSPSSLSASVGDRVTITCRASQAIDSYLHWYQQKPGKAPKLLIYSASNLETGVPLRFSGSGSGTDFTLTISSLLPEDFATYYCQQVVWRPFTFGQGTKVEIKRV[human IgG1 Fc with changes left out]"}, "B20": {"name": "TNFα dAb Fc variant S60P (Fc fusion, name in Kabat numbering)", "chain": "DIQMTQSPSSLSASVGDRVTITCRASQAIDSYLHWYQQKPGKAPKLLIYSASNLETGVPPRFSGSGSGTDFTLTISSLLPEDFATYYCQQVVWRPFTFGQGTKVEIKRV[human IgG1 Fc with changes left out]"}, "B21": {"name": "TNFα dAb Fc variant S60Q (Fc fusion, name in Kabat numbering)", "chain": "DIQMTQSPSSLSASVGDRVTITCRASQAIDSYLHWYQQKPGKAPKLLIYSASNLETGVPQRFSGSGSGTDFTLTISSLLPEDFATYYCQQVVWRPFTFGQGTKVEIKRV[human IgG1 Fc with changes left out]"}}, "data": [{"target": "recombinant human TNFα (human, UniProt P01375 part only)", "assay": "cell-based or functional assay", "units": {"Standardized EC50, L929 neutralization assay (5-point)": "µg/mL"}, "values": [{"binder": "B1", "Standardized EC50, L929 neutralization assay (5-point)": 0.971}, {"binder": "B2", "Standardized EC50, L929 neutralization assay (5-point)": 7.04}, {"binder": "B3", "Standardized EC50, L929 neutralization assay (5-point)": 2.25}, {"binder": "B4", "Standardized EC50, L929 neutralization assay (5-point)": 1.17}, {"binder": "B5", "Standardized EC50, L929 neutralization assay (5-point)": 0.689}, {"binder": "B6", "Standardized EC50, L929 neutralization assay (5-point)": 1.76}, {"binder": "B7", "Standardized EC50, L929 neutralization assay (5-point)": 16.4}, {"binder": "B8", "Standardized EC50, L929 neutralization assay (5-point)": 6.57}, {"binder": "B9", "Standardized EC50, L929 neutralization assay (5-point)": 9.11}, {"binder": "B10", "Standardized EC50, L929 neutralization assay (5-point)": 1.01}, {"binder": "B11", "Standardized EC50, L929 neutralization assay (5-point)": 1.89}, {"binder": "B12", "Standardized EC50, L929 neutralization assay (5-point)": 1.84}, {"binder": "B13", "Standardized EC50, L929 neutralization assay (5-point)": 5050}, {"binder": "B14", "Standardized EC50, L929 neutralization assay (5-point)": 8.87}, {"binder": "B15", "Standardized EC50, L929 neutralization assay (5-point)": 0.176}, {"binder": "B16", "Standardized EC50, L929 neutralization assay (5-point)": 0.417}, {"binder": "B17", "Standardized EC50, L929 neutralization assay (5-point)": 0.735}, {"binder": "B18", "Standardized EC50, L929 neutralization assay (5-point)": 0.867}, {"binder": "B19", "Standardized EC50, L929 neutralization assay (5-point)": 0.64}, {"binder": "B20", "Standardized EC50, L929 neutralization assay (5-point)": 0.895}, {"binder": "B21", "Standardized EC50, L929 neutralization assay (5-point)": 0.746}]}, {"target": "T1, recombinant human TNFα (CytoLab) (human, UniProt P01375 part only)", "T1 construct": "coated on the ELISA plate at 1 µg/ml; also called Tumour necrosis factor alpha", "assay": "ELISA on coated human TNFα", "units": {"A450 (AU)": "AU"}, "values": [{"binder": "B1", "A450 (AU)": 1.26}, {"binder": "B2", "A450 (AU)": 0.691}, {"binder": "B3", "A450 (AU)": 0.901}, {"binder": "B4", "A450 (AU)": 1.05}, {"binder": "B5", "A450 (AU)": 1.12}, {"binder": "B6", "A450 (AU)": 0.893}, {"binder": "B7", "A450 (AU)": 0.947}, {"binder": "B8", "A450 (AU)": 1.04}, {"binder": "B9", "A450 (AU)": 0.783}, {"binder": "B10", "A450 (AU)": 1.1}, {"binder": "B11", "A450 (AU)": 0.909}, {"binder": "B12", "A450 (AU)": 0.992}, {"binder": "B13", "A450 (AU)": 0.793}, {"binder": "B14", "A450 (AU)": 1.36}, {"binder": "B15", "A450 (AU)": 1.37}, {"binder": "B16", "A450 (AU)": 1.21}, {"binder": "B17", "A450 (AU)": 1.49}, {"binder": "B18", "A450 (AU)": 1.46}, {"binder": "B19", "A450 (AU)": 1.21}, {"binder": "B20", "A450 (AU)": 1.34}, {"binder": "B21", "A450 (AU)": 1.12}]}]}
